According to the supplement of paper PMC9151546:
Repeats are few or missing, and single values can be far off.

Legend:
CHO-K1 [1] = experiment: micronucleus frequency (% of nucleated events); higher = more micronuclei (genotoxic)
CHO-K1 [2] = experiment: hypodiploid nuclei frequency (% of nucleated events); higher = more hypodiploid events (aneugenic)
Description: (§1)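 Flow-cytometric in vitro micronucleus assay (Litron MicroFlow) in CHO-K1 cells in 96-well plates, 19 concentrations (4.5-200 µM, n=1 per concentration). Without S9, cells were exposed for 24 h and sampled at 48 h. With Aroclor 1254-induced rat liver S9, cells were exposed for 3-4 h and sampled at 27-28 h. Read-outs are %MN and %hypodiploid nuclei relative to nucleated events, and relative survival as the nuclei-to-bead ratio versus the 1% DMSO vehicle control (x100).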

CHO-K1 [3] = experiment: relative survival (nuclei to bead ratio vs DMSO control) (% of vehicle control); higher = more surviving cells
Description: as §1
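Throughout, for hypodiploid nuclei frequency (% of nucleated events): hypodiploid nuclei gated on a flow cytometer with 488 nm excitation after SYTOX Green staining, cultures at 37 °C, positive controls vinblastine without S9 and cyclophosphamide with S9.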
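Throughout, for micronucleus frequency (% of nucleated events): cells lysed with nuclei stained by SYTOX Green, then micronucleus-gated events counted against nucleated events by flow cytometry with 488 nm excitation.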
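Throughout, for relative survival (nuclei to bead ratio vs DMSO control): Lysed-cell nuclei stained with SYTOX Green and counted against counting beads by flow cytometry at 488 nm excitation, with vinblastine (no S9) and cyclophosphamide (plus S9) as positive controls.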

CC1(C)C(=O)N(Br)C(=O)N1Br [1,3-Dibromo-5,5-dimethylhydantoin]
Conditions	hypodiploid nuclei frequency, CHO-K1 [2] [%]	micronucleus frequency, CHO-K1 [1] [%]	relative survival, CHO-K1 [3]
concentration: 4.5 (µM), S9 metabolic activation: with S9, exposure time: 3-4 hours	0.36	1.58	99.2
concentration: 4.5 (µM), S9 metabolic activation: without S9, exposure time: 24 hours	0.64	1.78	116
concentration: 5.63 (µM), S9 metabolic activation: with S9, exposure time: 3-4 hours	0.2	1.46	86.7
concentration: 5.63 (µM), S9 metabolic activation: without S9, exposure time: 24 hours	0.54	2.54	112
concentration: 7.04 (µM), S9 metabolic activation: with S9, exposure time: 3-4 hours	0.18	1.3	88.4
concentration: 7.04 (µM), S9 metabolic activation: without S9, exposure time: 24 hours	0.64	1.84	121
concentration: 8.8 (µM), S9 metabolic activation: with S9, exposure time: 3-4 hours	0.28	1.7	82.9
concentration: 8.8 (µM), S9 metabolic activation: without S9, exposure time: 24 hours	0.64	1.82	124
concentration: 11 (µM), S9 metabolic activation: with S9, exposure time: 3-4 hours	0.16	1.24	83.9
concentration: 11 (µM), S9 metabolic activation: without S9, exposure time: 24 hours	0.9	2.02	115
concentration: 13.7 (µM), S9 metabolic activation: with S9, exposure time: 3-4 hours	0.12	1.52	98.2
concentration: 13.7 (µM), S9 metabolic activation: without S9, exposure time: 24 hours	0.68	1.38	121
concentration: 17.2 (µM), S9 metabolic activation: with S9, exposure time: 3-4 hours	0.28	1.32	108
concentration: 17.2 (µM), S9 metabolic activation: without S9, exposure time: 24 hours	0.76	2.1	104
concentration: 21.5 (µM), S9 metabolic activation: with S9, exposure time: 3-4 hours	0.18	1.36	101
concentration: 21.5 (µM), S9 metabolic activation: without S9, exposure time: 24 hours	0.78	1.62	124
concentration: 26.8 (µM), S9 metabolic activation: with S9, exposure time: 3-4 hours	0.24	0.98	113
concentration: 26.8 (µM), S9 metabolic activation: without S9, exposure time: 24 hours	0.68	1.46	109
concentration: 33.6 (µM), S9 metabolic activation: with S9, exposure time: 3-4 hours	0.14	1.14	95.9
concentration: 33.6 (µM), S9 metabolic activation: without S9, exposure time: 24 hours	0.66	1.3	124
concentration: 41.9 (µM), S9 metabolic activation: with S9, exposure time: 3-4 hours	0.34	1.26	83.9
concentration: 41.9 (µM), S9 metabolic activation: without S9, exposure time: 24 hours	0.68	1.22	110
concentration: 52.4 (µM), S9 metabolic activation: with S9, exposure time: 3-4 hours	0.1	1.08	97.2
concentration: 52.4 (µM), S9 metabolic activation: without S9, exposure time: 24 hours	0.86	1.32	124
concentration: 65.5 (µM), S9 metabolic activation: with S9, exposure time: 3-4 hours	0.24	1.06	85.2
concentration: 65.5 (µM), S9 metabolic activation: without S9, exposure time: 24 hours	0.82	1.42	108
concentration: 81.9 (µM), S9 metabolic activation: with S9, exposure time: 3-4 hours	0.26	1.28	91.5
concentration: 81.9 (µM), S9 metabolic activation: without S9, exposure time: 24 hours	0.8	1.48	114
concentration: 102 (µM), S9 metabolic activation: with S9, exposure time: 3-4 hours	0.12	0.98	75
concentration: 102 (µM), S9 metabolic activation: without S9, exposure time: 24 hours	0.8	1.48	112
concentration: 128 (µM), S9 metabolic activation: with S9, exposure time: 3-4 hours	0.18	1.24	73.2
concentration: 128 (µM), S9 metabolic activation: without S9, exposure time: 24 hours	1.38	1.7	108
concentration: 160 (µM), S9 metabolic activation: with S9, exposure time: 3-4 hours	0.26	1.64	83.4
concentration: 160 (µM), S9 metabolic activation: without S9, exposure time: 24 hours	1.06	1.96	95.5
concentration: 200 (µM), S9 metabolic activation: with S9, exposure time: 3-4 hours	0.12	1.5	72.1
concentration: 200 (µM), S9 metabolic activation: without S9, exposure time: 24 hours	1.06	2.56	94.7

OC(CCl)CCl [1,3-Dichloro-2-propanol]
Conditions	hypodiploid nuclei frequency, CHO-K1 [2] [%]	micronucleus frequency, CHO-K1 [1] [%]	relative survival, CHO-K1 [3]
concentration: 4.5 (µM), S9 metabolic activation: with S9, exposure time: 3-4 hours	0.18	0.9	116
concentration: 4.5 (µM), S9 metabolic activation: without S9, exposure time: 24 hours	0.34	0.96	106
concentration: 5.63 (µM), S9 metabolic activation: with S9, exposure time: 3-4 hours	0.08	0.8	107
concentration: 5.63 (µM), S9 metabolic activation: without S9, exposure time: 24 hours	0.6	1.24	97.5
concentration: 7.04 (µM), S9 metabolic activation: with S9, exposure time: 3-4 hours	0.2	0.84	121
concentration: 7.04 (µM), S9 metabolic activation: without S9, exposure time: 24 hours	0.38	1.04	120
concentration: 8.8 (µM), S9 metabolic activation: with S9, exposure time: 3-4 hours	0.2	0.72	117
concentration: 8.8 (µM), S9 metabolic activation: without S9, exposure time: 24 hours	0.36	1.34	131
concentration: 11 (µM), S9 metabolic activation: with S9, exposure time: 3-4 hours	0.2	0.9	156
concentration: 11 (µM), S9 metabolic activation: without S9, exposure time: 24 hours	0.52	1.48	122
concentration: 13.7 (µM), S9 metabolic activation: with S9, exposure time: 3-4 hours	0.2	1.02	128
concentration: 13.7 (µM), S9 metabolic activation: without S9, exposure time: 24 hours	0.36	1.36	109
concentration: 17.2 (µM), S9 metabolic activation: with S9, exposure time: 3-4 hours	0.24	1.48	147
concentration: 17.2 (µM), S9 metabolic activation: without S9, exposure time: 24 hours	0.58	1.36	117
concentration: 21.5 (µM), S9 metabolic activation: with S9, exposure time: 3-4 hours	0.32	1.02	158
concentration: 21.5 (µM), S9 metabolic activation: without S9, exposure time: 24 hours	0.44	1.3	107
concentration: 26.8 (µM), S9 metabolic activation: with S9, exposure time: 3-4 hours	0.18	0.88	86
concentration: 26.8 (µM), S9 metabolic activation: without S9, exposure time: 24 hours	0.46	1.46	94.9
concentration: 33.6 (µM), S9 metabolic activation: with S9, exposure time: 3-4 hours	0.16	0.92	102
concentration: 33.6 (µM), S9 metabolic activation: without S9, exposure time: 24 hours	0.5	1.36	120
concentration: 41.9 (µM), S9 metabolic activation: with S9, exposure time: 3-4 hours	0.12	1.02	104
concentration: 41.9 (µM), S9 metabolic activation: without S9, exposure time: 24 hours	0.6	1.42	97.5
concentration: 52.4 (µM), S9 metabolic activation: with S9, exposure time: 3-4 hours	0.28	0.82	119
concentration: 52.4 (µM), S9 metabolic activation: without S9, exposure time: 24 hours	0.54	1.02	101
concentration: 65.5 (µM), S9 metabolic activation: with S9, exposure time: 3-4 hours	0.18	1.06	109
concentration: 65.5 (µM), S9 metabolic activation: without S9, exposure time: 24 hours	0.66	1.26	100
concentration: 81.9 (µM), S9 metabolic activation: with S9, exposure time: 3-4 hours	0.32	1.06	115
concentration: 81.9 (µM), S9 metabolic activation: without S9, exposure time: 24 hours	0.72	1.32	118
concentration: 102 (µM), S9 metabolic activation: with S9, exposure time: 3-4 hours	0.16	1.32	107
concentration: 102 (µM), S9 metabolic activation: without S9, exposure time: 24 hours	0.8	1.54	89.7
concentration: 128 (µM), S9 metabolic activation: with S9, exposure time: 3-4 hours	0.18	1.2	120
concentration: 128 (µM), S9 metabolic activation: without S9, exposure time: 24 hours	0.84	1.42	103
concentration: 160 (µM), S9 metabolic activation: with S9, exposure time: 3-4 hours	0.2	1.14	128
concentration: 160 (µM), S9 metabolic activation: without S9, exposure time: 24 hours	0.98	1.42	99.7
concentration: 200 (µM), S9 metabolic activation: with S9, exposure time: 3-4 hours	0.26	1.52	109
concentration: 200 (µM), S9 metabolic activation: without S9, exposure time: 24 hours	1	1.7	77
